The results in this text go back to PMC6919601, “Identification of Plasmodium dipeptidyl aminopeptidase allosteric inhibitors by high throughput screening” (PLoS ONE, 2019).

Hit rate of the full screen: of about 110,000 compounds, about 230 (0.21%) showed an effect of 50% or more. The list shows a part of the results.
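Further: 30 min substrate incubation versus DMSO and 10 µM JCP410 controls.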

For this assay, the target named is DPAP1 (Plasmodium falciparum, UniProt Q8IIJ9). The assay is described as follows: primary screen, percent inhibition; read by cleavage of a fluorogenic dipeptide substrate; higher = more effect of the substance. Also on record: species or system P. falciparum D10 trophozoite lysates; single well.
DPAP1, sequence (Q8IIJ9 whole entry, looked up): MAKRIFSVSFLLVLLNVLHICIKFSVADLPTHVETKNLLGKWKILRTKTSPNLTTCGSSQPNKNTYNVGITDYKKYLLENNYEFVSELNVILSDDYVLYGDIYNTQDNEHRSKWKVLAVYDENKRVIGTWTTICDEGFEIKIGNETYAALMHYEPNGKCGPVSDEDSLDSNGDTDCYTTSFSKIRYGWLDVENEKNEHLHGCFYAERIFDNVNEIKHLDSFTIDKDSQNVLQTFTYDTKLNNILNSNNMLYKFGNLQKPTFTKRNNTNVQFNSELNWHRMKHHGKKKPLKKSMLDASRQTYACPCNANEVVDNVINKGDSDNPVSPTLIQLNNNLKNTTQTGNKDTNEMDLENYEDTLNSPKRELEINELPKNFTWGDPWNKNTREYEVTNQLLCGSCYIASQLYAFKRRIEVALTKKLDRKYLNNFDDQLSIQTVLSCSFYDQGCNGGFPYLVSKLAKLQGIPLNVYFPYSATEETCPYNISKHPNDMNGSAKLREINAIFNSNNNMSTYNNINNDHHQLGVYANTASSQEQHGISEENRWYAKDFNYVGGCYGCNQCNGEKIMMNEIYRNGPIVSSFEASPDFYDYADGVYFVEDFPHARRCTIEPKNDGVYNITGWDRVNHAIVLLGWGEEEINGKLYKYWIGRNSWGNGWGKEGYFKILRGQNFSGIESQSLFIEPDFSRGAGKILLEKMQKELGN
With `Cc1ccc(C(=O)N2CCC(Cc3ccccc3)CC2)cc1[N+](=O)[O-]`, the “% Inhibition @ 10 uM” value was 1.38%.

Regarding `CCn1c(C)nc2cc(Cl)ccc21`, the “% Inhibition @ 10 uM” value was -3.55%.

With `CCCOC(=O)c1cc(-c2ccc(/C=C3\C(=O)N(CCO)C(=O)C(C#N)=C3C)o2)ccc1Cl`, the “% Inhibition @ 10 uM” value was -8.88%.

Consider `Cc1ccc(S(=O)(=O)N(C)CC(=O)NCc2ccco2)cc1`, for which the “% Inhibition @ 10 uM” value is on record as 0.235%.

In the case of `COc1ccc(S(=O)(=O)N(CC(=O)Nc2cccc(F)c2)c2ccc(F)cc2)cc1OC`, the “% Inhibition @ 10 uM” value is -3.43%.

For `CCOc1ccc2oc(C)c(C(=O)O)c2c1`, the “% Inhibition @ 10 uM” value is listed as -0.357%.

In the case of `CC(NC(=O)C1CCCN(S(=O)(=O)c2cccs2)C1)c1ccccc1` (centres unmarked), the “% Inhibition @ 10 uM” value was determined as 4.07%.

As to `COC(=O)c1ccc(C2C(C(=O)OC(C)C)=C(C)N=C3SCCC(=O)N32)cc1` (centres unmarked), the “% Inhibition @ 10 uM” value is on record as -5.63%.

As for `CCN(CC)C(=O)C1CCCN(Cc2ccc3c(c2)c2ccccc2n3CC)C1` (centres unmarked), the “% Inhibition @ 10 uM” value is listed as -1.07%.

Consider `CC(=O)c1ccc(N2CCN(C)CC2)c(F)c1`, for which the “% Inhibition @ 10 uM” value is recorded as -3.72%.

Turning to `COc1cc(CN2CCN(c3cccc(C(F)(F)F)c3)CC2)cc(OC)c1`, the “% Inhibition @ 10 uM” value is -0.856%.

With `COc1ccc(Cl)cc1N1C(=O)CC(N2CCN(C)CC2)C1=O` (centres unmarked), the “% Inhibition @ 10 uM” value is listed as -6.68%.

As for `COc1cccc(OC)c1C(=O)Nc1ccc(Oc2ccccc2)cc1`, the “% Inhibition @ 10 uM” value is reported as -1.36%.

Consider `COc1ccc(C2C3=C(O)CC(c4ccco4)CC3=Nc3nc4ccccc4n32)cc1` (centres unmarked), for which the “% Inhibition @ 10 uM” value is -3.53%.

Consider `CCN(c1ccccc1)S(=O)(=O)c1ccc(NC(=O)c2ccccc2Br)cc1`, for which the “% Inhibition @ 10 uM” value worked out at 0.11%.

In the case of `CC1CCN(c2ncnc3c2oc2ccccc23)CC1`, the “% Inhibition @ 10 uM” value worked out at 0.0265%.

`Cn1cnc2c1c(=O)n(CNc1ccccc1)c(=O)n2C`: the “% Inhibition @ 10 uM” value was -1.88%.

On to `CC1=CN2C(=O)C(NC(=O)COc3ccccc3)(C(F)(F)F)N=C2S1` (centres unmarked), for which the “% Inhibition @ 10 uM” value is listed as 0.221%.

Turning to `Clc1ccc(-c2noc3ncnc(N(Cc4ccco4)C4CCCC4)c23)cc1`, the “% Inhibition @ 10 uM” value is recorded as -0.704%.

`COc1ccc(/C=C/c2nc(=O)c(-c3ccccc3)c(C)o2)cc1`: the “% Inhibition @ 10 uM” value stood at 5.17%.

Regarding `CNc1oc(-c2ccc([N+](=O)[O-])cc2)nc1C#N`, the “% Inhibition @ 10 uM” value was -6.68%.

For the compound `O=C(NCCc1c[nH]c2ccc(OCc3ccccc3)cc12)C1CC1`, the “% Inhibition @ 10 uM” value was -1.86%.

On to `CC1CCCCC1Nc1ncccn1` (centres unmarked), for which the “% Inhibition @ 10 uM” value came out at 1.27%.

Turning to `NC(=O)CSc1nnnn1-c1ccccc1`, the “% Inhibition @ 10 uM” value is -12.5%.

Consider `O=C(/C=C(/c1ccc(Cl)cc1)n1cncn1)c1ccc(Cl)cc1`, for which the “% Inhibition @ 10 uM” value turned out to be 3.57%.

For `O=C(Nc1ccc(Cl)c(Cl)c1)[C@@H]1C2C=CC(C2)[C@@H]1C(=O)O` (some centres unmarked), the “% Inhibition @ 10 uM” value is -4.43%.

Regarding `O=C(O)CCN1C2=C(C(=O)CCC2)C(c2ccc(OCc3cccc(F)c3)cc2)C2=C1CCCC2=O`, the “% Inhibition @ 10 uM” value stood at 3.27%.

As for `Cc1sc(NC(=O)c2ccccc2F)c(CN2CCCC2)c1C`, the “% Inhibition @ 10 uM” value is recorded as -2.99%.

Take `NC(=O)c1ccc(NC(=O)c2sc3ccccc3c2Cl)cc1`: the “% Inhibition @ 10 uM” value stood at 2.45%.

Regarding `CC(C(O)c1ccc2c(c1)CCCC2)N1CCCCC1` (centres unmarked), the “% Inhibition @ 10 uM” value is recorded as -7.39%.

In the case of `O=C(Nc1cccc(O)c1)c1cccnc1`, the “% Inhibition @ 10 uM” value is listed as -4.08%.

In the case of `Cc1ccc(C2C3=C(O)CC(C)(C)CC3=Nc3ccccc3N2C(=O)c2ccccc2)o1` (centres unmarked), the “% Inhibition @ 10 uM” value is -5.96%.

For the compound `COc1ccc(OCCCCCN2CCCCC2)cc1`, the “% Inhibition @ 10 uM” value was -3.42%.

Consider `Brc1ccccc1-c1nnc2sc(-c3ccccn3)nn12`, for which the “% Inhibition @ 10 uM” value is recorded as -2.21%.

As for `COc1cc(C2C3=C(CC(C)(C)CC3=O)OC3=C2C(=O)CC(C)(C)C3)cc(Br)c1OC`, the “% Inhibition @ 10 uM” value is given as 13.2%.

`COc1ccc(/C=C2\SC(=N)N(c3nccs3)C2=O)cc1`: the “% Inhibition @ 10 uM” value was -1.84%.

Take `CCOCCCNC(=O)C1CCCN(S(=O)(=O)N2CC(C)CC(C)C2)C1` (centres unmarked): the “% Inhibition @ 10 uM” value is reported as -1.21%.

In the case of `Cc1ccc(Nc2nc(-c3ccccc3)cs2)cc1C`, the “% Inhibition @ 10 uM” value is given as -2%.

Regarding `CCOC(=O)c1c(NC(=O)c2cc(Cl)cc(Cl)c2OC)sc2c1CCCC2`, the “% Inhibition @ 10 uM” value is -4.61%.

Regarding `COc1ccc(CC(=O)N[C@@H](CC2CCCCC2)C(=O)NCC#N)cc1`, the “% Inhibition @ 10 uM” value is on record as -1.83%.

Turning to `CNC(=O)c1ccc(NC(=O)Nc2ccccc2)cc1`, the “% Inhibition @ 10 uM” value is reported as -1.97%.

As for `Cc1ccc2c(CNCc3cccc(F)c3)c(C(=O)O)n(Cc3ccccc3C)c2c1`, the “% Inhibition @ 10 uM” value was found to be 2.62%.

As for `CCN1CCN(c2ncnc3scc(-c4ccc(Cl)cc4)c23)CC1`, the “% Inhibition @ 10 uM” value stood at 0.931%.

As to `COc1cccc2cc(-c3nc(-c4ccccn4)no3)c(=O)oc12`, the “% Inhibition @ 10 uM” value is given as -3.13%.

For the compound `O=C(NCCN1CCCC1)c1ccccc1Cl`, the “% Inhibition @ 10 uM” value amounted to 1.61%.

As for `C=CCSc1ncc(Cl)c(C(=O)NCc2ccc(OC)cc2)n1`, the “% Inhibition @ 10 uM” value is given as 5.54%.

Take `O=C(COc1ccccc1)Nc1nc(C2COc3ccccc3O2)cs1` (centres unmarked): the “% Inhibition @ 10 uM” value was found to be 0.00706%.

On to `O=C(Nc1cccc(O)c1)c1ccc(C(F)(F)F)cc1`, for which the “% Inhibition @ 10 uM” value is reported as 13.7%.

With `CCCCSc1nc(O)cc(=O)n1C1CCCCC1`, the “% Inhibition @ 10 uM” value stood at 2.01%.

Take `N#CC1=C(N)OC2=C(C(=O)CCC2)C1c1ccncc1` (centres unmarked): the “% Inhibition @ 10 uM” value is on record as -0.587%.

For the compound `CC(=O)c1cccc(NC(=O)C2CC3c4ccccc4C2c2ccccc23)c1` (centres unmarked), the “% Inhibition @ 10 uM” value came out at 3.91%.

For the compound `CCSC(=O)NC12CC3CC(CC(C3)C1)C2`, the “% Inhibition @ 10 uM” value was 0.526%.

For `CC(C)(C)c1ccc(-c2nc(CN3CCOCC3)cc(CN3CCOCC3)c2O)cc1`, the “% Inhibition @ 10 uM” value is given as 3.98%.

As to `CCc1nc2ccc(C(=O)NC(C)c3ccc4c(c3)OCCO4)cc2nc1CC` (centres unmarked), the “% Inhibition @ 10 uM” value was found to be 5.17%.

On to `Cc1ccccc1OCC(=O)Nc1ccc(C(=O)NCC(C)C)cc1`, for which the “% Inhibition @ 10 uM” value is on record as -1.95%.

`C=CCc1ccccc1OCC(O)CN1CC(C)OC(C)C1` (centres unmarked): the “% Inhibition @ 10 uM” value was -2.12%.

In the case of `CCOCCCN(Cc1ccco1)C(=O)Cn1ncc2c(=O)oc3ccc(C)cc3c21`, the “% Inhibition @ 10 uM” value is recorded as -1.7%.

`Cc1cc(O)c(C(=O)c2ccccc2C(=O)O)cc1C`: the “% Inhibition @ 10 uM” value came to 3.84%.

As for `CCOC(=O)N1CCC(N2Cc3cccc(C(=O)NCCCN4CCCC4=O)c3C2=O)CC1`, the “% Inhibition @ 10 uM” value amounted to 1.23%.

Take `CC(=O)c1sc(NC(=O)COc2ccc(C(C)(C)C)cc2)nc1C`: the “% Inhibition @ 10 uM” value was -0.661%.

On to `CCO/C(O)=C1/C(C)=NC2=C(C(=O)CCC2)C1c1ccc(F)cc1` (centres unmarked), for which the “% Inhibition @ 10 uM” value is on record as -4.04%.

With `CCN1C2=C(C(=O)CCC2)C(c2cc(Cl)ccc2OCC(=O)O)C2=C1CCCC2=O`, the “% Inhibition @ 10 uM” value came out at 3.57%.

In the case of `COC(=O)c1cc2c(=O)n3cccc(C)c3nc2n(CCCn2ccnc2)c1=N`, the “% Inhibition @ 10 uM” value is 3.16%.

`Cc1ccc(NS(=O)(=O)c2ccc(NC(=O)C3CC3)cc2)cc1C`: the “% Inhibition @ 10 uM” value is given as -5.51%.

For the compound `CC(C)(C)c1ccc(C(=O)O/N=C(\N)c2ccccn2)cc1`, the “% Inhibition @ 10 uM” value came to 0.343%.
